Results reported in the supplement of paper PMC9151546.
Many values rest on one well or one pass, so single values are uncertain.

Tests used:
CHO-K1 [1] = assay: micronucleus frequency (% of nucleated events); higher = more micronuclei (genotoxic)
CHO-K1 [2] = assay: hypodiploid nuclei frequency (% of nucleated events); higher = more hypodiploid events (aneugenic)
Procedure: (§1)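 Flow-cytometric in vitro micronucleus assay (Litron MicroFlow) in CHO-K1 cells in 96-well plates, 19 concentrations (4.5-200 µM, n=1 per concentration). Without S9, cells were exposed for 24 h and sampled at 48 h. With Aroclor 1254-induced rat liver S9, cells were exposed for 3-4 h and sampled at 27-28 h. Read-outs are %MN and %hypodiploid nuclei relative to nucleated events, and relative survival as the nuclei-to-bead ratio versus the 1% DMSO vehicle control (x100).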

CHO-K1 [3] = assay: relative survival (nuclei to bead ratio vs DMSO control) (% of vehicle control); higher = more surviving cells
Procedure: as §1
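For hypodiploid nuclei frequency (% of nucleated events) in this document: hypodiploid nuclei gated on a flow cytometer with 488 nm excitation after SYTOX Green staining, cultures at 37 °C, positive controls vinblastine without S9 and cyclophosphamide with S9.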
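For micronucleus frequency (% of nucleated events) in this document: cells lysed with nuclei stained by SYTOX Green, then micronucleus-gated events counted against nucleated events by flow cytometry with 488 nm excitation.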
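For relative survival (nuclei to bead ratio vs DMSO control) in this document: Lysed-cell nuclei stained with SYTOX Green and counted against counting beads by flow cytometry at 488 nm excitation, with vinblastine (no S9) and cyclophosphamide (plus S9) as positive controls.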

O=C1CCCO1 [4-Butyrolactone]
Conditions | hypodiploid nuclei frequency, CHO-K1 [2] [%] | micronucleus frequency, CHO-K1 [1] [%] | relative survival, CHO-K1 [3]
concentration: 4.46 (µM), S9 metabolic activation: with S9, exposure time: 3-4 hours | 0.28 | 1.04 | 109
concentration: 4.46 (µM), S9 metabolic activation: without S9, exposure time: 24 hours | 1.26 | 1.02 | 79.8
concentration: 5.57 (µM), S9 metabolic activation: with S9, exposure time: 3-4 hours | 0.26 | 1.04 | 82.8
concentration: 5.57 (µM), S9 metabolic activation: without S9, exposure time: 24 hours | 0.78 | 1.02 | 105
concentration: 6.97 (µM), S9 metabolic activation: with S9, exposure time: 3-4 hours | 0.26 | 1.42 | 101
concentration: 6.97 (µM), S9 metabolic activation: without S9, exposure time: 24 hours | 0.44 | 1.26 | 98.6
concentration: 8.71 (µM), S9 metabolic activation: with S9, exposure time: 3-4 hours | 0.32 | 1.22 | 92.7
concentration: 8.71 (µM), S9 metabolic activation: without S9, exposure time: 24 hours | 1.26 | 0.86 | 96.2
concentration: 10.9 (µM), S9 metabolic activation: with S9, exposure time: 3-4 hours | 0.16 | 1.56 | 86.4
concentration: 10.9 (µM), S9 metabolic activation: without S9, exposure time: 24 hours | 0.64 | 1.08 | 101
concentration: 13.6 (µM), S9 metabolic activation: with S9, exposure time: 3-4 hours | 0.24 | 2.72 | 74.7
concentration: 13.6 (µM), S9 metabolic activation: without S9, exposure time: 24 hours | 0.94 | 1.46 | 85.3
concentration: 17 (µM), S9 metabolic activation: with S9, exposure time: 3-4 hours | 0.14 | 1.04 | 89.6
concentration: 17 (µM), S9 metabolic activation: without S9, exposure time: 24 hours | 0.6 | 1.58 | 86.9
concentration: 21.3 (µM), S9 metabolic activation: with S9, exposure time: 3-4 hours | 0.14 | 0.76 | 83.5
concentration: 21.3 (µM), S9 metabolic activation: without S9, exposure time: 24 hours | 0.8 | 1.46 | 101
concentration: 26.6 (µM), S9 metabolic activation: with S9, exposure time: 3-4 hours | 0.24 | 1.06 | 121
concentration: 26.6 (µM), S9 metabolic activation: without S9, exposure time: 24 hours | 0.66 | 1.1 | 102
concentration: 33.2 (µM), S9 metabolic activation: with S9, exposure time: 3-4 hours | 0.18 | 1 | 97.8
concentration: 33.2 (µM), S9 metabolic activation: without S9, exposure time: 24 hours | 0.64 | 1.48 | 108
concentration: 41.5 (µM), S9 metabolic activation: with S9, exposure time: 3-4 hours | 0.22 | 1 | 94.6
concentration: 41.5 (µM), S9 metabolic activation: without S9, exposure time: 24 hours | 1.14 | 1.84 | 92
concentration: 51.9 (µM), S9 metabolic activation: with S9, exposure time: 3-4 hours | 0.14 | 1.2 | 80.7
concentration: 51.9 (µM), S9 metabolic activation: without S9, exposure time: 24 hours | 0.86 | 1.46 | 81.4
concentration: 64.9 (µM), S9 metabolic activation: with S9, exposure time: 3-4 hours | 0.36 | 1.04 | 86
concentration: 64.9 (µM), S9 metabolic activation: without S9, exposure time: 24 hours | 1.04 | 1.76 | 85.6
concentration: 81.1 (µM), S9 metabolic activation: with S9, exposure time: 3-4 hours | 0.22 | 0.94 | 78.9
concentration: 81.1 (µM), S9 metabolic activation: without S9, exposure time: 24 hours | 0.88 | 1.52 | 98.2
concentration: 101 (µM), S9 metabolic activation: with S9, exposure time: 3-4 hours | 0.22 | 0.9 | 84.8
concentration: 101 (µM), S9 metabolic activation: without S9, exposure time: 24 hours | 0.84 | 1.66 | 88.5
concentration: 127 (µM), S9 metabolic activation: with S9, exposure time: 3-4 hours | 0.12 | 1 | 101
concentration: 127 (µM), S9 metabolic activation: without S9, exposure time: 24 hours | 0.74 | 2.04 | 93.8
concentration: 158 (µM), S9 metabolic activation: with S9, exposure time: 3-4 hours | 0.22 | 1.44 | 83.2
concentration: 158 (µM), S9 metabolic activation: without S9, exposure time: 24 hours | 1.26 | 2.18 | 74.7
concentration: 198 (µM), S9 metabolic activation: with S9, exposure time: 3-4 hours | 0.24 | 1.1 | 81.3
concentration: 198 (µM), S9 metabolic activation: without S9, exposure time: 24 hours | 1.42 | 2.28 | 78.4
